Among all 52,000 compounds or so, about 4,300 (8.3%) were called active. No stated cut-off is given here; in the data, active means survival mostly below about 52% (no sharp cut-off); inactive means mostly above about 56%. Some of the results follow.

For the experiment, the system named is DeltatarO mutant. Briefly: growth inhibition of S. aureus wild type versus tarO mutant, primary screen, teichoic acid synthesis inhibitors, RN4220, OD600 (AID 463173). The note with it: OD600, 18 h, stronger effect = lower value, screened at 18.75 µg/mL (by protocol).
Turning to `Cc1cccc(NC(=O)c2ccc(C(=O)Nc3cccc(C)c3C)cc2)c1C`, the survival is inactive: 82%.

Turning to `Cc1nc(N)sc1C(C)(C)C`, the survival is inactive: 86%.

Turning to `CN1CCN(C(c2ccccc2Cl)c2sc3nc(-c4ccco4)nn3c2O)CC1` (stereo not given), the survival is inactive: 131%.

Turning to `CCC(=O)N1CCc2cc(Br)cc(S(=O)(=O)N3CCN(c4ccc(C(C)=O)cc4)CC3)c21`, the survival was inactive: 59%.

Take `COc1ccc(-c2cc(C(=O)Oc3cccc(C)c3)c3ccccc3n2)cc1`: the survival is active: -2%.

For the compound `Cc1ccc(CCNC(=O)C2CCN(c3nnc(C)c4c(C)n(-c5ccccc5)nc34)CC2)cc1`, the survival is inactive: 71%.

On to `COc1ccc(C)cc1NCc1nnc2n1CCCCC2`, for which the survival is active: 20%.

Regarding `Cc1cc(OC(C)C(=O)N(Cc2ccco2)Cc2ccccc2F)cc(C)c1Cl` (stereo not given), the survival was inactive: 81%.

On to `O=C(CCCCn1c(=O)c2ccccc2n(Cc2ccc(Cl)cc2)c1=O)NCc1ccccc1Cl`, for which the survival is inactive: 97%.

As to `COc1ccc(NC(=O)CSc2nc3ncccc3[nH]2)c(OC)c1`, the survival was inactive: 116%.

On to `Cn1c(=O)cc(OCC(=O)N2CCN(c3ccccc3)CC2)c2ccccc21`, for which the survival was inactive: 94%.

On to `CN(C)C(=O)CN1CCN(c2ccc(F)cc2)CC1`, for which the survival is inactive: 107%.

With `COc1ccc(NC(=O)C2CCCN(C(=O)c3cnn(-c4ccc(F)cc4)c3-n3cccc3)C2)cc1` (stereo not given), the survival is active: 47%.

As for `CCc1ccccc1NC(=O)c1ccc(F)c(S(=O)(=O)NC2CCCCCC2)c1`, the survival is inactive: 83%.

Turning to `Cc1ccc(NC(=O)CSc2nc3ccccc3c3nc(CCn4cncc4C)nn23)cc1F`, the survival was inactive: 88%.

In the case of `Cc1ccc(NC(=O)CSCc2cnn(-c3ccccc3)c2-n2cccc2)c(C)c1`, the survival is inactive: 78%.

As to `CCOc1cccc2sc(N(Cc3cccnc3)C(=O)C3CCCCC3)nc12`, the survival was inactive: 91%.

Turning to `Cc1cc2oc(=O)c(CC(=O)NCCc3ccccc3)c(C)c2c2occ(C(C)(C)C)c12`, the survival was inactive: 76%.

In the case of `CC(=Nc1ccc(C)cc1)c1ccc(O)cc1O`, the survival is inactive: 85%.

As for `Cc1cccc(N2CCN(C(=O)c3cn(C4CCCCC4)c(=O)c4c3c3ccccc3n4C)CC2)c1C`, the survival is inactive: 115%.

On to `Cc1cc(C(=O)O)c2c(=O)n(C)c(=O)n(C)c2n1`, for which the survival was inactive: 99%.

Turning to `COc1ccc(-c2cn3c(n2)sc2cc(C(=O)NC4CCCc5ccccc54)ccc23)cc1` (stereo not given), the survival was inactive: 58%.

`CCCOC(=O)c1c(C)oc2c1cc(NS(=O)(=O)c1ccc(OCC)cc1)c1ccccc12`: the survival was active: 56%.

As to `CCCCN(C)CCCNC(=O)c1ccc2nc(N3CCCCC3)sc2c1`, the survival was inactive: 99%.

`CCN(C(=O)CCc1nc(-c2ccc(C)cc2)no1)c1cc(C)ccc1C`: the survival was active: -4%.

As for `CCc1cc(C(=O)O)c(NC(=O)c2ccccc2)s1`, the survival is inactive: 65%.

`Cc1cccc(NC(=O)C2CCCN(S(=O)(=O)c3cccc4nonc34)C2)c1C` (stereo not given): the survival was inactive: 119%.

As to `CCN1CCC(N(Cc2ccc3c(c2)OCO3)C(=O)Nc2cc(Cl)ccc2C(=O)OC)CC1`, the survival was inactive: 126%.

Regarding `COc1ccc(N2CC(NC(=O)/C=C\c3ccc(OC)c(OC)c3)CC2=O)cc1` (stereo not given), the survival is inactive: 55%.

As to `CCc1ccc(-n2c(SC(CC)C(=O)N(CC)CC)nc3n[nH]c(C)c3c2=N)cc1` (stereo not given), the survival is inactive: 128%.

Regarding `Cc1nc(CC(=O)Nc2ccc(C)c(C)c2)cs1`, the survival is active: 40%.

`CCOC(=O)N1CCN(S(=O)(=O)N2CCCC(C(=O)NCc3cc(OC)ccc3OC)C2)CC1` (stereo not given): the survival is inactive: 70%.

Regarding `CCOCCCNC(=O)C1CCCN(Cc2nc(-c3ccc(CC)cc3)oc2C)C1` (stereo not given), the survival is inactive: 76%.

As to `CC(C)NC(=O)Cn1cc(C(=O)C(C)C)c2ccccc21`, the survival was inactive: 102%.

Regarding `CCc1ccc(OCC(=O)N(Cc2cccs2)c2ccc(Cl)cc2)cc1`, the survival is inactive: 66%.

`CCN(Cc1ccccc1)Cc1c(O)ccc2c(=O)c(-c3ccccc3OC)c(C(F)(F)F)oc12`: the survival was inactive: 62%.

As to `Cc1cccc(OCCSc2nc3ccccc3n2CC(=O)N2CCCCC2)c1C`, the survival was active: 28%.

With `CCOC(=O)c1ccc(N2CCN(c3cc(Cl)ccc3C)CC2)c(NC(=O)Nc2cccc(OC)c2)c1`, the survival is inactive: 76%.

For `CC(=O)Nc1nonc1-c1nnc(SCC(=O)Nc2ccc(F)cc2F)n1-c1ccccc1`, the survival was active: 13%.

Turning to `Cc1ccc(Cn2c(CNS(=O)(=O)c3c(C)cc(C)cc3C)nc3cccnc32)cc1`, the survival is inactive: 122%.

As to `Cc1c(C)n(Cc2ccccc2)c2ccc(C(=O)NC(C)c3ccccc3)cc12` (stereo not given), the survival was inactive: 78%.

Consider `COc1ccc(OCC(=O)Nc2ccc(C(=O)OCc3cc(=O)n4nc(C)sc4n3)cc2)cc1`, for which the survival is inactive: 105%.

As to `CCOc1ccccc1N(CC)C(=O)Nc1cn(C)c(=O)c2ccccc12`, the survival is inactive: 94%.

As for `Cc1cccc2cc(C#N)c(SCC(=O)NCC3CCCO3)nc12` (stereo not given), the survival is inactive: 98%.

As for `Cc1ccc(/C=C/c2onc(C)c2S(=O)(=O)N2CCC(C(=O)N3CC(C)Oc4ccccc43)CC2)cc1` (stereo not given), the survival was inactive: 116%.

Regarding `CCCCCn1c(=O)[nH]c2cc(C(=O)N3CCN(c4ccccc4)CC3)ccc2c1=O`, the survival is inactive: 68%.

For `COc1ccc(N2CCN(C(CNC(=O)CC(C)C)c3ccc4c(c3)OCO4)CC2)cc1` (stereo not given), the survival was inactive: 75%.

On to `Cc1ccc(-c2nc3ccc(Cl)cn3c2Nc2ccc3c(c2)OCCO3)o1`, for which the survival is inactive: 58%.

On to `COc1ccc(-c2nc(CS(=O)CC(=O)NCc3ccc(F)cc3)c(C)o2)cc1OC` (stereo not given), for which the survival was inactive: 86%.

As for `CS(=O)(=O)N(CC(=O)N1CCN(Cc2ccc3c(c2)OCO3)CC1)Cc1ccccc1`, the survival is inactive: 70%.

For the compound `CCCCOc1ccc(C2=NC(c3ccncc3)=Nc3ccc(Br)cc3N2)cc1`, the survival was active: 12%.

In the case of `CCCC(=O)Nc1ccc(Cl)c(NC(=O)c2cccnc2Cl)c1`, the survival is inactive: 106%.

Take `CCc1c(C)sc2c1CCN(C(=O)Nc1ccccc1C(F)(F)F)C2c1ccccc1` (stereo not given): the survival is inactive: 70%.

For `Cc1ccccc1NC(=O)c1c(NC(=O)C(C)Oc2cccc(Cl)c2)sc2c1CCCC2` (stereo not given), the survival is active: 40%.

As for `COc1cc(Cl)c(C)cc1NC(=O)CCc1c(C)nc2cc(-c3cccc(F)c3)nn2c1C`, the survival was inactive: 74%.

With `CCn1c(C(=O)N2CCCC(C(=O)NCCCOC)C2)cc2sccc21` (stereo not given), the survival was inactive: 82%.

On to `CC1CC(C)(C)NC(=S)O1` (stereo not given), for which the survival was inactive: 77%.

Consider `Cc1ccc(NC(=O)c2oc3ccccc3c2NC(=O)Cc2cccs2)cc1`, for which the survival was inactive: 51%.

Regarding `COc1ccc2c(c1)cc1c(=O)n(CC(=O)NC3CCCCC3)nc(C)n12`, the survival was inactive: 70%.

For the compound `CC1=C(C#N)C(=O)NC(C)(C)C1`, the survival was inactive: 76%.

As to `CCc1ccc(NC(=O)CC2C(=O)N(c3cccc(OC)c3)C(=O)N2Cc2ccco2)cc1` (stereo not given), the survival is active: 25%.

As to `CCOc1ccccc1NC(=O)Nc1nnc(N(C)Cc2ccccc2)s1`, the survival was active: 53%.

For `CSc1nnc(C2CCCN2)n1C` (stereo not given), the survival was inactive: 58%.

On to `COc1ccccc1NC(=O)CCS(=O)(=O)c1ccc2nc(C)sc2c1`, for which the survival is inactive: 45%.

As for `Cc1ccc(C(Nc2ccccn2)c2ccc3cccnc3c2O)cc1` (stereo not given), the survival is active: 1%.

Turning to `COc1cc(Cl)c(NS(=O)(=O)c2ccc3c(c2)CC(C)N3C(=O)C2CCC2)c(OC)c1` (stereo not given), the survival is inactive: 80%.

Regarding `CC(=O)N1CCC(N(C(=O)Nc2ccc(C)c(F)c2)C(C)C)CC1`, the survival was inactive: 72%.

For `Cc1nc2ccccn2c(=O)c1NC(=O)c1c(F)cccc1F`, the survival is inactive: 83%.

`CC1CCN(C(=O)c2c(NC(=O)c3ccccc3F)sc3c2CCC(C(C)(C)C)C3)CC1` (stereo not given): the survival is active: -4%.

As to `O=C(c1cccs1)N(Cc1cccnc1)c1nc2ccc(F)cc2s1`, the survival was inactive: 79%.

With `Cc1ccc(OCC(=O)Nc2ccccc2C(=O)OCc2cc(=O)n3nc(C4CC4)sc3n2)cc1`, the survival was inactive: 94%.

Take `COc1cccc(C(=O)Nc2cc(-c3cn4cccnc4n3)ccc2C)c1OC`: the survival is inactive: 80%.

For the compound `CCOc1ccc(NC(=O)c2sc3nc4c(cc3c2N)CCCCCC4)cc1`, the survival is inactive: 57%.

As for `NCCCCCc1nnc(SCc2ccc(F)cc2)o1`, the survival was inactive: 62%.

`CCCc1nn2c(=O)cc(COC(=O)c3cccc(NC(=O)CCc4ccccc4)c3)nc2s1`: the survival is inactive: 131%.

On to `COCCNC(=O)CSc1c2c(nc3cc(Cl)ccc13)CCCC2`, for which the survival was inactive: 71%.

In the case of `COCCCNC(=O)c1ccc2nc(Cc3ccc(OC)cc3)oc2c1`, the survival is inactive: 69%.

As to `CCOc1ccc(CNC(=O)C2CCN(S(=O)(=O)N3CCCCC3)CC2)cc1`, the survival is inactive: 72%.

Consider `CCn1cc(S(=O)(=O)c2ccc(OC)cc2)c(=O)c2cc(F)c(N3CCC(C)CC3)cc21`, for which the survival is inactive: 83%.

As for `Cc1ccc(CN(Cc2ccco2)C(=O)COc2c(C)cc(C)cc2C)cc1`, the survival is inactive: 54%.

For the compound `CCCN(CCC)CCCNC(=O)C1CCC(CNS(=O)(=O)c2cccc3nsnc23)CC1` (stereo not given), the survival is inactive: 94%.

Regarding `CCCCNS(=O)(=O)c1ccc2nc(-c3cccnc3)cc(C(=O)NCCC)c2c1`, the survival was inactive: 80%.

Regarding `Oc1ccc(-c2nc3ccccn3c2Nc2ccc3c(c2)OCCO3)cc1`, the survival is inactive: 75%.

Consider `CC(C)C(c1nnnn1C(C)(C)C)N(Cc1cc2cc3c(cc2[nH]c1=O)OCCO3)C1CCCCC1` (stereo not given), for which the survival is inactive: 109%.

Regarding `Cc1ccc(C)c(N2CCN(C(=O)Cn3c(=O)c4cccn4c4ccc(F)cc43)CC2)c1`, the survival was inactive: 64%.

Regarding `Cc1ccc(NC(=O)CSCn2nnc3c(=O)[nH]c(Cc4ccc(F)cc4)nc32)c(C)c1`, the survival was inactive: 94%.

Consider `COc1cc2c(=O)c(C(=O)c3ccc(C)c(C)c3)cn(Cc3ccccc3)c2cc1OC`, for which the survival is inactive: 79%.

`Cc1cccc(N2CCN(C(=O)c3ccc4c(c3)N(Cc3ccccc3F)C(=O)c3ccccc3S4=O)CC2C)c1` (stereo not given): the survival was inactive: 88%.

`Cc1cc(C)c2nc(NC(=O)c3ccc(S(=O)(=O)N4CCCC4)cc3)sc2c1`: the survival was inactive: 102%.

In the case of `COc1ccc(-c2cc3nc(C)c(CCC(=O)N4CCN(c5ccccc5)CC4)c(C)n3n2)c(OC)c1`, the survival was inactive: 79%.

(Values after PubChem BioAssay AID463173 (ICCB-Longwood Screening Facility, Harvard Medical School, 2010).)
